pKi: −log10 of the molar value.
The molecules below were run against Recombinant heterodimeric HCV NS3/NS4A protease (strain 1a) (Hepatitis C virus genotype 1a, UniProt P27958) (assay: Spectrophotometric assay for HCV serine protease inhibitory activity (chromogenic ester substrates)). Conditions: Table 3, sulfone compounds, rows without Prep. Ex. number; read-out: Ki* (numeric value, unlabelled structures at end of sulfone table, column without head).
Type: biochemical
Description: Assay for HCV Protease Inhibitory Activity:
Spectrophotometric Assay: Spectrophotometric assay for the HCV serine protease can be performed on the inventive compounds by following the procedure described by R. Zhang et al, Analytical Biochemistry, 270 (1999) 268-275, the disclosure of which is incorporated herein by reference. The assay based on the proteolysis of chromogenic ester substrates is suitable for the continuous monitoring of HCV NS3 protease activity. The substrates are derived from the P side of the NS5A-NS5B junction sequence (Ac-DTEDWX(Nva), where X=A or P) whose C-terminal carboxyl groups are esterified with one of four different chromophoric alcohols (3- or 4-nitrophenol, 7-hydroxy-4-methyl-coumarin, or 4-phenylazophenol).
Protein concentrations are determined by the Biorad dye method using recombinant HCV protease standards previously quantified by amino acid analysis. Prior to assay initiation, the enzyme storage buffer (50 mM sodium phosphate pH 8.0, 300 mM NaCl, 10% glycerol, 0.05% lauryl maltoside and 10 mM DTT) is exchanged for the assay buffer (25 mM MOPS pH 6.5, 300 mM NaCl, 10% glycerol, 0.05% lauryl maltoside, 5 μM EDTA and 5 μM DTT) utilizing a Biorad Bio-Spin P-6 prepacked column.
Protease Assay: HCV protease assays are performed at 30° C. using a 200 μl reaction mix in a 96-well microtiter plate. Assay buffer conditions (25 mM MOPS pH 6.5, 300 mM NaCl, 10% glycerol, 0.05% lauryl maltoside, 5 μM EDTA and 5 μM DTT) are optimized for the NS3/NS4A heterodimer (D. L. Sali et al, ibid.)). […] Fifty μls of prewarmed protease (12 nM, 30° C.) in assay buffer, is then used to initiate the reaction (final volume 200 μl). The plates are monitored over the length of the assay (60 minutes) for change in absorbance at the appropriate wavelength (340 nm for 3-Np and HMC, 370 nm for PAP, and 400 nm for 4-Np) using a Spectromax Plus microtiter plate reader equipped with a monochrometer (acceptable results can be obtained with plate readers that utilize cutoff filters). Proteolytic cleavage of the ester linkage between the Nva and the chromophore is monitored at the appropriate wavelength against a no enzyme blank as a control for non-enzymatic hydrolysis. The evaluation of substrate kinetic parameters is performed over a 30-fold substrate concentration range (˜6-200 μM). Initial velocities are determined using linear regression and kinetic constants are obtained by fitting the data to the Michaelis-Menten equation using non-linear regression analysis (Mac Curve Fit 1.1, K. Raner). Turnover numbers (kcat) are calculated assuming the enzyme is fully active.
Evaluation of Inhibitors and Inactivators: The inhibition constants (Ki) for the competitive inhibitors Ac-D-(D-Gla)-L-l-(Cha)-C-OH (27), Ac-DTEDWA(Nva)-OH and Ac-DTEDVVP(Nva)-OH are determined experimentally at fixed concentrations of enzyme and substrate by plotting vo/vi vs. inhibitor concentration ([l]o) according to the rearranged Michaelis-Menten equation for competitive inhibition kinetics: vo/vi=1+[l]o/(Ki (1+[S]o/Km)), where vo is the uninhibited initial velocity, vi is the initial velocity in the presence of inhibitor at any given inhibitor concentration ([l]o) and [S]o is the substrate concentration used.

| SMILES | pKi |
| --- | --- |
| C#CCCC(NC(=O)[C@@H]1[C@@H]2[C@H](CN1C(=O)[C@@H](NC(=O)NC1(CS(=O)(=O)C(C)(C)C)CCCCC1)C(C)(C)C)C2(C)C)C(=O)C(=O)NC1CC1C (some centres unmarked) | 7.74 |
| C#CCCC(NC(=O)[C@@H]1[C@@H]2[C@H](CN1C(=O)[C@@H](NC(=O)NC1(CS(=O)(=O)C(C)(C)CC)CCCCC1)C1(C)CCCCC1)C2(C)C)C(=O)C(=O)NC1CC1 (some centres unmarked) | 8.15 |
| C#CCCC(NC(=O)[C@@H]1[C@@H]2[C@H](CN1C(=O)[C@@H](NC(=O)NC1(CS(=O)(=O)C(C)(C)CC)CCCCC1)C1(C)CCCCC1)C2(C)C)C(=O)C(=O)NCC1CC1 (some centres unmarked) | 8.00 |
| C=CCNC(=O)C(=O)C(CC1CC1)NC(=O)[C@@H]1[C@@H]2[C@H](CN1C(=O)[C@@H](NC(=O)NC1(CS(=O)(=O)C(C)(C)CC)CCCCC1)C1(C)CCCCC1)C2(C)C (some centres unmarked) | 7.85 |
| C#CCCC(NC(=O)[C@@H]1[C@@H]2[C@H](CN1C(=O)[C@@H](NC(=O)NC1(CS(=O)(=O)C(C)(C)C)CCCCC1)C1(C)CCCCC1)C2(C)C)C(=O)C(=O)NCCC (some centres unmarked) | 8.40 |
| C=CCNC(=O)C(=O)C(CCCC)NC(=O)[C@@H]1[C@@H]2[C@H](CN1C(=O)[C@@H](NC(=O)NC1(CS(=O)(=O)C(C)(C)C)CCCCC1)C1CCCCC1)C2(Cl)Cl (some centres unmarked) | 8.30 |
| C=CCNC(=O)C(=O)C(CC1CCC1)NC(=O)[C@@H]1[C@@H]2[C@H](CN1C(=O)[C@@H](NC(=O)NC1(CS(=O)(=O)C(C)(C)CC)CCCCC1)C1(C)CCCCC1)C2(C)C (some centres unmarked) | 7.43 |
| C=CCNC(=O)C(=O)C(CC1CC1)NC(=O)[C@@H]1[C@@H]2[C@H](CN1C(=O)[C@@H](NC(=O)NC1(CS(=O)(=O)C(C)(C)C)CCCCC1)C1CCCCC1)C2(Cl)Cl (some centres unmarked) | 7.74 |
| CCCCC(NC(=O)[C@@H]1[C@@H]2[C@H](CN1C(=O)[C@@H](NC(=O)NC1(CS(=O)(=O)C(C)(C)C)CCCCC1)C(C)(C)C)C2(C)C)C(=O)C(=O)NCCCl (some centres unmarked) | 7.57 |
| C#CCNC(=O)C(=O)C(CC1CCC1)NC(=O)[C@@H]1[C@@H]2[C@H](CN1C(=O)[C@@H](NC(=O)NC1(CS(=O)(=O)C(C)(C)CC)CCCCC1)C1(C)CCCCC1)C2(C)C (some centres unmarked) | 7.47 |
| C#CCCNC(=O)C(=O)C(CC1CCC1)NC(=O)[C@@H]1[C@@H]2[C@H](CN1C(=O)[C@@H](NC(=O)NC1(CS(=O)(=O)C(C)(C)CC)CCCCC1)C1(C)CCCCC1)C2(C)C (some centres unmarked) | 7.32 |
| CCC(C)(C)S(=O)(=O)CC1(NC(=O)N[C@H](C(=O)N2C[C@H]3[C@@H]([C@H]2C(=O)NC(CC2CCC2)C(=O)C(=O)NCCC(=O)OC(C)(C)C)C3(C)C)C2(C)CCCCC2)CCCCC1 (some centres unmarked) | 7.28 |
| CCC(C)(C)S(=O)(=O)CC1(NC(=O)N[C@H](C(=O)N2C[C@H]3[C@@H]([C@H]2C(=O)NC(CC2CCC2)C(=O)C(=O)NC2CC2)C3(C)C)C2(C)CCCCC2)CCCCC1 (some centres unmarked) | 7.27 |
| C=CCNC(=O)C(=O)C(CC1CC1)NC(=O)[C@@H]1[C@@H]2[C@H](CN1C(=O)[C@@H](NC(=O)NC1(CS(=O)(=O)C(C)(C)C)CCCCC1)C(C)(C)C)C2(Cl)Cl (some centres unmarked) | 8.05 |
| C=CCNC(=O)C(=O)C(CCCC)NC(=O)[C@@H]1[C@@H]2[C@H](CN1C(=O)[C@@H](NC(=O)NC1(CS(=O)(=O)C(C)(C)C)CCCCC1)C(C)(C)C)C2(Cl)Cl (some centres unmarked) | 8.10 |
| C#CCCC(NC(=O)[C@@H]1[C@@H]2[C@H](CN1C(=O)[C@@H](NC(=O)NC1(CS(=O)(=O)C(C)(C)C)CCCCC1)C1(C)CCCCC1)C2(C)C)C(=O)C(=O)NCC=C (some centres unmarked) | 8.30 |
| CC(C)(C)OC(=O)CCNC(=O)C(=O)C(CC1CC1)NC(=O)[C@@H]1[C@@H]2[C@H](CN1C(=O)[C@@H](NC(=O)NC1(CS(=O)(=O)C(C)(C)C)CCCCC1)C1(C)CCCCC1)C2(C)C (some centres unmarked) | 7.77 |
| CCC(C)(C)S(=O)(=O)CC1(NC(=O)N[C@H](C(=O)N2C[C@H]3[C@@H]([C@H]2C(=O)NC(CC2CC2)C(=O)C(=O)NCCC(=O)OC(C)(C)C)C3(C)C)C2(C)CCCCC2)CCCCC1 (some centres unmarked) | 7.72 |

| SMILES | pKi |
| --- | --- |
| C#CCCNC(=O)C(=O)C(CC1CC1)NC(=O)[C@@H]1[C@@H]2[C@H](CN1C(=O)[C@@H](NC(=O)NC1(CS(=O)(=O)C(C)(C)C)CCCCC1)C1(C)CCCCC1)C2(C)C (some centres unmarked) | 7.77 |
| C#CCCNC(=O)C(=O)C(CC1CC1)NC(=O)[C@@H]1[C@@H]2[C@H](CN1C(=O)[C@@H](NC(=O)NC1(CS(=O)(=O)C(C)(C)CC)CCCCC1)C1(C)CCCCC1)C2(C)C (some centres unmarked) | 7.70 |
| C#CCCC(NC(=O)[C@@H]1[C@@H]2[C@H](CN1C(=O)[C@@H](NC(=O)NC1(CS(=O)(=O)C(C)(C)C)CCCCC1)C1(C)CCCCC1)C2(C)C)C(=O)C(=O)NC1CCC1 (some centres unmarked) | 8.00 |
| C#CCNC(=O)C(=O)C(CC1CC1)NC(=O)[C@@H]1[C@@H]2[C@H](CN1C(=O)[C@@H](NC(=O)NC1(CS(=O)(=O)C(C)(C)C)CCCCC1)C1(C)CCCCC1)C2(C)C (some centres unmarked) | 8.10 |
| C#CCNC(=O)C(=O)C(CC1CC1)NC(=O)[C@@H]1[C@@H]2[C@H](CN1C(=O)[C@@H](NC(=O)NC1(CS(=O)(=O)C(C)(C)CC)CCCCC1)C1(C)CCCCC1)C2(C)C (some centres unmarked) | 7.77 |
| CC1([C@H](NC(=O)NC2(CS(=O)(=O)C(C)(C)C)CCCCC2)C(=O)N2C[C@H]3[C@@H]([C@H]2C(=O)NC(CC2CC2)C(=O)C(=O)NC2CC2)C3(C)C)CCCCC1 (some centres unmarked) | 7.92 |
| CCC(C)(C)S(=O)(=O)CC1(NC(=O)N[C@H](C(=O)N2C[C@H]3[C@@H]([C@H]2C(=O)NC(CC2CC2)C(=O)C(=O)NC2CC2)C3(C)C)C2(C)CCCCC2)CCCCC1 (some centres unmarked) | 7.89 |
| C#CCCC(NC(=O)[C@@H]1[C@H]2CC(C)(C)O[C@H]2CN1C(=O)[C@@H](NC(=O)NC1(CS(=O)(=O)C(C)(C)C)CCCCC1)C1CCCCC1)C(=O)C(=O)NCC=C (some centres unmarked) | 7.64 |
| C=CCNC(=O)C(=O)C(CC1CC1)NC(=O)[C@@H]1[C@@H]2[C@H](CN1C(=O)[C@@H](NC(=O)NC1(CS(=O)(=O)C(C)(C)C)CCCCC1)C1(C)CCCC1)C2(C)C (some centres unmarked) | 7.92 |
| C#CCCC(NC(=O)[C@@H]1[C@@H]2[C@H](CN1C(=O)[C@@H](NC(=O)NC1(CS(=O)(=O)C(C)(C)C)CCCCC1)C1(C)CCCC1)C2(C)C)C(=O)C(=O)NCC=C (some centres unmarked) | 8.62 |
| C#CCCC(NC(=O)[C@@H]1[C@@H]2[C@H](CN1C(=O)[C@@H](NC(=O)NC1(CS(=O)(=O)C(C)(C)C)CCCCC1)C1(C)CCCCC1)C2(C)C)C(=O)C(=O)NCC1CC1 (some centres unmarked) | 8.40 |
| C=CCNC(=O)C(=O)C(CCC(F)F)NC(=O)[C@@H]1[C@@H]2[C@H](CN1C(=O)[C@@H](NC(=O)NC1(CS(=O)(=O)C(C)(C)C)CCCCC1)C1(C)CCCCC1)C2(C)C (some centres unmarked) | 8.22 |
| C#CCCC(NC(=O)[C@@H]1[C@@H]2[C@H](CN1C(=O)[C@@H](NC(=O)NC1(CS(=O)(=O)C(C)(C)C)CCCCC1)C1(C)CCCCC1)C2(C)C)C(=O)C(=O)NC1CC1 (some centres unmarked) | 8.22 |
| C=CCNC(=O)C(=O)C(CCC)NC(=O)[C@@H]1[C@@H]2[C@H](CN1C(=O)[C@@H](NC(=O)NC1(CS(=O)(=O)C(C)(C)C)CCCCC1)C1(C)CCCC1)C2(C)C (some centres unmarked) | 7.66 |
| C=CCNC(=O)C(=O)C(CCCC)NC(=O)[C@@H]1[C@@H]2[C@H](CN1C(=O)[C@@H](NC(=O)NC1(CS(=O)(=O)C(C)(C)C)CCCCC1)C1(C)CCCC1)C2(C)C (some centres unmarked) | 7.66 |
| C=CCNC(=O)C(=O)C(CC1CCC1)NC(=O)[C@@H]1[C@@H]2[C@H](CN1C(=O)[C@@H](NC(=O)NC1(CS(=O)(=O)C(C)(C)C)CCCCC1)C1(C)CCCC1)C2(C)C (some centres unmarked) | 7.47 |
| C#CCCC(NC(=O)[C@@H]1[C@@H]2[C@H](CN1C(=O)[C@@H](NC(=O)NC1(CS(=O)(=O)C(C)(C)C)CCCCC1)C1(C)CCCC1)C2(C)C)C(=O)C(=O)NCCC (some centres unmarked) | 7.89 |

Same assay, conditions: Table 3, sulfone compounds, rows without Prep. Ex. number; read-out: Ki* range (class symbol, unlabelled structures at end of sulfone table, column without head)

| SMILES | pKi |
| --- | --- |
| C=CCNC(=O)C(=O)C(CC1CC1)NC(=O)[C@@H]1[C@@H]2[C@H](CN1C(=O)[C@@H](NC(=O)NC1(CS(=O)(=O)C(C)(C)C)CCCCC1)C(C)(C)C)[C@H]2c1ccccc1 (some centres unmarked) | < 6.60 |

Same assay, conditions: Table 5; read-out: Ki*

| SMILES | pKi |
| --- | --- |
| C#CCCC(NC(=O)[C@@H]1C2[C@H](CN1C(=O)[C@@H](NC(=O)NC1(CS(=O)(=O)C(C)(C)C)CCCCC1)C(C)(C)C)C2(C)C)C(=O)C(=O)NCC=C (some centres unmarked) | 8.70 |
| C#CCCC(NC(=O)[C@@H]1C2[C@H](CN1C(=O)[C@@H](NC(=O)NC1(CS(=O)(=O)C(C)(C)C)CCCCC1)C1CCCCC1)C2(C)C)C(=O)C(=O)NCC1CC1 (some centres unmarked) | 7.72 |

From patent publication US8067379B2, “Sulfur compounds as inhibitors of hepatitis C virus NS3 serine protease” (Schering Corporation, priority 2004, dated 2011)
